Assay results: the supplement of paper PMC10126150
Sequences with one replicate were seen in a single cluster, so their values are uncertain.

Tested on: ATP
Experiment: switch fluorescence ratio, 500 uM ATP over buffer (Cy3 cluster intensity, sum of 5 cycles each) (fold (ratio)); higher = stronger signal-on switching upon ATP binding; sequences stand for … in TCGTCGGCAGCGTCAGATGTGTATAAGAGACAGTTTTTTTTTTTTTTTTTTTTTTTTT…TC
Settings: aptamer strand: ATP DNA aptamer (quencher-CACCTGGGGGAGTATTGCGGAGGAAGG + anchor), 100 nM annealed; ATP concentration: 500 uM; one replicate
How it was run: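 For every switch-domain sequence, the fluorescence ratio is the mean of per-cluster values, each being summed target-cycle Cy3 intensity over summed buffer-cycle Cy3 intensity. Clusters outside 100-1000 RFU were excluded. On a modified Illumina MiSeq flow-cell, the Cy3-labelled switching-strand clusters were annealed to 100 nM quencher-labelled ATP aptamer, imaged in selection buffer and then after 15 min with 500 uM ATP at 22 °C. Five such cycles were run, with NaOH stripping and re-annealing between them.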
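Further: ATP exposure 15 min at 22 °C before imaging.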

Sequence	switch fluorescence ratio
CTTATGCGCG	0.995
CGATGTATGG	0.985
TCGGATTCGG	0.985
AGTCTCTAAT	0.992
AAGAGACCTA	1.01
CCTCTGTTT	1.63
CGTCTCAAGG	1.02
CAATGGAGAT	1.03
GGGCGTTAAC	0.999
CATCAGCCTG	0.928
CGAAGCCTGT	1.18
TCGACGGCAG	0.983
CATTTCTCCT	1.04
TGTCTTTTAC	0.986
GGAGCCTAAT	1.02
TGGTATAAAT	1.01
AGGGGGACC	1.06
ACGCTTTCGA	1.06
CGAACTTTTT	0.989
CTGCTCTACG	1.06
TGGTACAATA	1
CCGCCAGTAG	4.36
CTAGCGCGTT	0.979
GCGGGGACCG	1.01
CATGTACACT	1.04
GAGTTTTTCG	1.01

Sequence	switch fluorescence ratio
CTGAGCGAC	1.09
AAGGACTGTT	0.984
TTGTTCGGGC	1.05
TGATTCTCGA	0.907
GCCGTCGGGT	1.02
GTCGCGCCG	0.925
CCCCGGTACA	1.36
ATCTTTATCG	0.97
TTCGGTTAAT	1.02
TTGTAAAGGA	0.975
TGCTGGTAAA	1.01
CTTGTTTACA	0.953
CGTTACAGTA	1.07
GGCAGACAGG	0.972
TCGCATGCAC	2.06
CCATAAAGG	1.16
GGTTTCAACT	1.02
AGTATGCAGC	0.984
TAATGTTT	0.994
GCACCCAAGA	1.07
GTGTGGGCCT	1.04
AAGTTAGATT	1.04
TGCCGCGGAC	1.03
TAACTCGAGC	1.04
TATTTCAGCC	0.975
TGCCGCAACA	3.26

Sequence	switch fluorescence ratio
TTCATTTACC	0.978
GCGCACGGTG	1.2
AAAATCAAGG	1.01
GGGTGGTT	1.01
ATGCTCGGTG	1.03
GAATGTTCGA	0.97
ATGTGGTGTG	1
TAACGGTAT	1.56
TCACTGGCAC	1.24
CATGACGTGG	0.962
TTATGACTGC	0.981
CCTTCTCACC	1.3
TTACAGGGCG	1.03
AATTGTCACA	1.02
CCGGTACCTA	1.1
CCGGTCCTGA	1.02
ACTGGGCTGA	1.05
GGGAAGTTGC	0.971
TTGCAATTGT	1.01
GGCTATTGAG	1
CGATACTTT	0.981
GCGTTATAGT	1.02
AACGCAGTTT	1.19
TTTTATCATT	0.985
GACGAATAGC	1.4
AGACCGGAGA	1.02

Sequence	switch fluorescence ratio
AAACTAGTGG	0.964
GGCGTCTTGG	0.994
GATGCGCCT	1.02
GAGCATCAAC	1.09
AGGGACCCGG	0.963
GGGGTAATCG	1
CCCCAGCGG	1.73
ATAGCACCA	1.03
GCGAGAAAAC	0.998
ATGAGAAA	1.03
CTGTGCTGG	0.996
CAACCTTAAT	1.02
TGCAGAGCTA	0.993
CAGACCTTAA	1.08
CCATATGAGC	1.01
CGAGTTTTTC	1.04
CCCTAGTGCA	1.18
ACGTCTCATA	0.999
TTCGGAGAG	0.983
GTTAATATGG	1.02
TTGGGTCAGT	1.03
CTATCATGTG	0.991
CTTTGAGTGC	0.958
